In the supplement of paper PMC4604168 (melanoma cell lines):
The other results are listed elsewhere or left out. Many values rest on one well or one pass, so single values are uncertain.

What was measured:
Assay in all cases: cell count relative to DMSO control; melanoma cells; higher = more viable cells
Settings in all cases: library dose: low library concentration; 72 h
WM115 = test system: WM115
WM1716 = test system: WM1716
WM1745 = test system: WM1745
WM3526 = test system: WM3526
WM3619 = test system: WM3619
WM451Lu = test system: WM451Lu
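Note: cell number obtained by counting DAPI-stained nuclei in high-throughput microscope images with image analysis software, screen run in 1,536-well plates.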

Row | SMILES | cell count (WM115) [%] | cell count (WM1716) [%] | cell count (WM1745) [%] | cell count (WM3526) [%] | cell count (WM3619) [%] | cell count (WM451Lu) [%]
1 | OCc1c[nH]c2ccccc12 [Indole-3-carbinol] + CC(C)CCN1c2nc(Nc3cc(F)c(O)c(F)c3)ncc2N(C)C(=O)C1C [BID1870] (first compound 0.8 µM, partner dose 0.2 µM) | 100 | 96.8 | 96.2 | 89 | 108 | 88.4
2 | COCC[n+]1c2c(n(Cc3cnccn3)c1C)C(=O)c1ccccc1C2=O + NCC(=O)Nc1ccc(-n2nc(C(F)(F)F)cc2-c2ccc3c(ccc4ccccc43)c2)cc1 [OSU03012] (first compound 0.0004 µM, partner dose 1 µM) | 74.4 | 82.6 | 97.6 | 35.9 | 80.5 | 56.4
3 | C#Cc1cccc(Nc2ncnc3cc(OCCOC)c(OCCOC)cc23)c1 [erlotinib] + Cn1cncc1[C@@](N)(c1ccc(Cl)cc1)c1ccc2c(c1)c(-c1cccc(Cl)c1)cc(=O)n2C [tipifarnib] (first compound 0.8 µM, partner dose 0.01 µM) | 80.2 | 79.6 | 82.1 | 86.6 | 75.8 | 89.7
4 | Cn1c(Nc2ccc(C(F)(F)F)cc2)nc2cc(Oc3ccnc(-c4ncc(C(F)(F)F)[nH]4)c3)ccc21 + N#Cc1c(O)c2c(-c3ccc(-c4ccccc4O)cc3)csc2[nH]c1=O [A769662] (first compound 0.08 µM, partner dose 2 µM) | 62 | 77.4 | 58 | 51.3 | 99.7 | 61.8
5 | Nc1cccc2c1CN(C1CCC(=O)NC1=O)C2=O (stereo not given) [lenalidomide] + COc1cc(N2CCC(N3CCN(C)CC3)CC2)ccc1Nc1ncc(Cl)c(Nc2ccccc2S(=O)(=O)C(C)C)n1 [NVP-TAE684] (first compound 1 µM, partner dose 0.08 µM) | 85.4 | 103 | 70.8 | 80.4 | 136 | 103
6 | COCC[n+]1c2c(n(Cc3cnccn3)c1C)C(=O)c1ccccc1C2=O + c1cc(-c2cnn3cc(-c4ccc(OCCN5CCCCC5)cc4)cnc23)ccn1 [Dorsomorphin] (first compound 0.0004 µM, partner dose 0.4 µM) | 88.6 | 87.1 | 80.5 | 90.2 | 83.4 | 71.2
7 | Clc1ccc(Nc2nnc(Cc3ccncc3)c3ccccc23)cc1 [vatalanib] + CN(C)S(=O)(=O)c1ccc2c(c1)/C(=C/c1cc3c([nH]1)CCCC3)C(=O)N2 [SU6656] (first compound 2 µM, partner dose 0.4 µM) | 85.5 | 108 | 89 | 97.2 | 93.9 | 98.3
8 | Clc1ccc(Nc2nnc(Cc3ccncc3)c3ccccc23)cc1 [vatalanib] + OCCn1cc(-c2cnc3nnn(Cc4ccc5ncccc5c4)c3n2)cn1 [PF04217903] (first compound 2 µM, partner dose 1 µM) | 91.7 | 83.8 | 126 | 80.3 | 56.6 | 97.2
9 | O=C(CCCCCCC(=O)Nc1ccccc1)NO [vorinostat] + COc1ccc(COc2ccc(Cc3cnc(N)nc3N)cc2OC)cc1 [GW2580] (first compound 0.08 µM, partner dose 1 µM) | 99.2 | 126 | 120 | 104 | 118 | 129
10 | OCc1c[nH]c2ccccc12 [Indole-3-carbinol] + Clc1ccc(Nc2nnc(Cc3ccncc3)c3ccccc23)cc1 [vatalanib] (first compound 0.8 µM, partner dose 2 µM) | 90.2 | 87.6 | 99.3 | 91.5 | 113 | 90.3
11 | Nc1cccc2c1CN(C1CCC(=O)NC1=O)C2=O (stereo not given) [lenalidomide] + O=C(Nc1ccccc1)c1cc([N+](=O)[O-])ccc1Cl [GW9662] (first compound 1 µM, partner dose 2 µM) | 91.2 | 92.2 | 97.9 | 101 | 73.2 | 114
12 | Cn1c(Nc2ccc(C(F)(F)F)cc2)nc2cc(Oc3ccnc(-c4ncc(C(F)(F)F)[nH]4)c3)ccc21 + O=c1cc(-c2cccc3c2Sc2ccccc2S3)oc(N2CCOCC2)c1 [KU55933] (first compound 0.08 µM, partner dose 1 µM) | 52.5 | 84.7 | 67 | 46.2 | 72.1 | 78
13 | Clc1ccc(Nc2nnc(Cc3ccncc3)c3ccccc23)cc1 [vatalanib] + CC(C)(C)c1cnc(CSc2cnc(NC(=O)C3CCNCC3)s2)o1 [SNS-032] (first compound 2 µM, partner dose 0.01 µM) | 90.2 | 76.7 | 81.2 | 91.3 | 77.9 | 99.3
14 | COCC[n+]1c2c(n(Cc3cnccn3)c1C)C(=O)c1ccccc1C2=O + CCc1ccc(CCOc2ccc(CC3SC(=O)NC3=O)cc2)nc1 [pioglitazone] (first compound 0.0004 µM, partner dose 2 µM) | 87.9 | 88.3 | 109 | 105 | 123 | 62
15 | Nc1cccc2c1CN(C1CCC(=O)NC1=O)C2=O (stereo not given) [lenalidomide] + Oc1cc(-c2nc(-c3ccccc3)[nH]c2-c2ccncc2)ccc1Cl [L779450] (first compound 1 µM, partner dose 0.2 µM) | 86.7 | 109 | 85.6 | 81.9 | 88.7 | 137
16 | O=C(CCCCCCC(=O)Nc1ccccc1)NO [vorinostat] + O=C(O)C(=O)Nc1sc2c(c1C(=O)O)CCNC2 [TCS401] (first compound 0.08 µM, partner dose 1.66667 µM) | 97.3 | 90.1 | 100 | 83.5 | 92.7 | 92.1
17 | Nc1cccc2c1CN(C1CCC(=O)NC1=O)C2=O (stereo not given) [lenalidomide] + Cn1cc(/C=C2\C(=O)Nc3cccnc32)c2ccccc21 [GW441756] (first compound 1 µM, partner dose 0.4 µM) | 97.9 | 90.3 | 94.4 | 98.1 | 96.6 | 103
18 | C#Cc1cccc(Nc2ncnc3cc(OCCOC)c(OCCOC)cc23)c1 [erlotinib] + CCc1ccc(CCOc2ccc(CC3SC(=O)NC3=O)cc2)nc1 [pioglitazone] (first compound 0.8 µM, partner dose 2 µM) | 108 | 94.8 | 70.4 | 84.8 | 74.8 | 114
19 | Cn1c(Nc2ccc(C(F)(F)F)cc2)nc2cc(Oc3ccnc(-c4ncc(C(F)(F)F)[nH]4)c3)ccc21 + Cn1nnc2c(C(N)=O)ncn2c1=O [temozolomide] (first compound 0.08 µM, partner dose 2 µM) | 45.5 | 70.5 | 70.2 | 44.5 | 59.8 | 72.9
20 | COCC[n+]1c2c(n(Cc3cnccn3)c1C)C(=O)c1ccccc1C2=O + OCCn1cc(-c2cnc3nnn(Cc4ccc5ncccc5c4)c3n2)cn1 [PF04217903] (first compound 0.0004 µM, partner dose 1 µM) | 107 | 94.4 | 108 | 99.7 | 98.9 | 52.6

Row | SMILES | cell count (WM115) [%] | cell count (WM1716) [%] | cell count (WM1745) [%] | cell count (WM3526) [%] | cell count (WM3619) [%] | cell count (WM451Lu) [%]
21 | Cn1c(Nc2ccc(C(F)(F)F)cc2)nc2cc(Oc3ccnc(-c4ncc(C(F)(F)F)[nH]4)c3)ccc21 + CCN(CC)CCCCNc1ncc2cc(-c3cc(OC)cc(OC)c3)c(NC(=O)NC(C)(C)C)nc2n1 [PD173074] (first compound 0.08 µM, partner dose 0.1 µM) | 47.9 | 82.6 | 71.5 | 61.8 | 60.9 | 108
22 | C#Cc1cccc(Nc2ncnc3cc(OCCOC)c(OCCOC)cc23)c1 [erlotinib] + NCC(=O)Nc1ccc(-n2nc(C(F)(F)F)cc2-c2ccc3c(ccc4ccccc43)c2)cc1 [OSU03012] (first compound 0.8 µM, partner dose 1 µM) | 95.8 | 82.4 | 75 | 59.2 | 119 | 57.5
23 | C#Cc1cccc(Nc2ncnc3cc(OCCOC)c(OCCOC)cc23)c1 [erlotinib] + CN(C)S(=O)(=O)c1ccc2c(c1)/C(=C/c1cc3c([nH]1)CCCC3)C(=O)N2 [SU6656] (first compound 0.8 µM, partner dose 0.4 µM) | 85 | 83.1 | 91.2 | 69 | 86.6 | 53.9
24 | O=C(CCCCCCC(=O)Nc1ccccc1)NO [vorinostat] + CC1(C)NC(=O)N(c2ccc([N+](=O)[O-])c(C(F)(F)F)c2)C1=O [nilutamide] (first compound 0.08 µM, partner dose 1 µM) | 106 | 108 | 82 | 93.3 | 124 | 89.2
25 | OCc1c[nH]c2ccccc12 [Indole-3-carbinol] + NC(=O)Nc1cc(-c2cccc(F)c2)sc1C(=O)N[C@H]1CCCNC1 [AZD7762] (first compound 0.8 µM, partner dose 0.02 µM) | 88.2 | 92.7 | 92.6 | 88.3 | 77.7 | 78.6
26 | O=C(CCCCCCC(=O)Nc1ccccc1)NO [vorinostat] + CCN(CC)CCCCNc1ncc2cc(-c3cc(OC)cc(OC)c3)c(NC(=O)NC(C)(C)C)nc2n1 [PD173074] (first compound 0.08 µM, partner dose 0.1 µM) | 107 | 102 | 102 | 101 | 89.1 | 116
27 | Clc1ccc(Nc2nnc(Cc3ccncc3)c3ccccc23)cc1 [vatalanib] + COc1cc(N2CCC(N3CCN(C)CC3)CC2)ccc1Nc1ncc(Cl)c(Nc2ccccc2S(=O)(=O)C(C)C)n1 [NVP-TAE684] (first compound 2 µM, partner dose 0.08 µM) | 73.1 | 115 | 80.5 | 89.7 | 127 | 110
28 | OCc1c[nH]c2ccccc12 [Indole-3-carbinol] + Oc1cc(-c2nc(-c3ccccc3)[nH]c2-c2ccncc2)ccc1Cl [L779450] (first compound 0.8 µM, partner dose 0.2 µM) | 87.2 | 121 | 94.4 | 96.1 | 96.8 | 116
29 | C#Cc1cccc(Nc2ncnc3cc(OCCOC)c(OCCOC)cc23)c1 [erlotinib] + COc1ccc(-c2ccc3c(N4CCOCC4)nc(N4C[C@@H](C)O[C@@H](C)C4)nc3n2)cc1CO [KU0063794] (first compound 0.8 µM, partner dose 0.02 µM) | 77.2 | 78.6 | 70.8 | 83.9 | 79.7 | 121
30 | COCC[n+]1c2c(n(Cc3cnccn3)c1C)C(=O)c1ccccc1C2=O + O=C1NC(=O)/C(=C/c2ccc(-c3ccc(F)cc3O)o2)S1 [AS252424] (first compound 0.0004 µM, partner dose 1 µM) | 91.4 | 96.2 | 98.4 | 90.4 | 120 | 103
31 | O=C(CCCCCCC(=O)Nc1ccccc1)NO [vorinostat] + NCC(=O)Nc1ccc(-n2nc(C(F)(F)F)cc2-c2ccc3c(ccc4ccccc43)c2)cc1 [OSU03012] (first compound 0.08 µM, partner dose 1 µM) | 77.7 | 108 | 104 | 44.2 | 61.2 | 59.8
32 | OCc1c[nH]c2ccccc12 [Indole-3-carbinol] + COc1cc2c(Oc3ccc4[nH]c(C)cc4c3F)ncnc2cc1OCCCN1CCCC1 [cediranib] (first compound 0.8 µM, partner dose 0.4 µM) | 108 | 108 | 83.5 | 102 | 104 | 92
33 | Clc1ccc(Nc2nnc(Cc3ccncc3)c3ccccc23)cc1 [vatalanib] + O=C1NC(=O)/C(=C/c2ccc(-c3ccc(F)cc3O)o2)S1 [AS252424] (first compound 2 µM, partner dose 1 µM) | 87.1 | 91 | 84.4 | 95.4 | 83.3 | 100
34 | COCC[n+]1c2c(n(Cc3cnccn3)c1C)C(=O)c1ccccc1C2=O + Oc1cc(-c2nc(-c3ccccc3)[nH]c2-c2ccncc2)ccc1Cl [L779450] (first compound 0.0004 µM, partner dose 0.2 µM) | 90.4 | 107 | 90.5 | 78.2 | 60.8 | 71.4
35 | COCC[n+]1c2c(n(Cc3cnccn3)c1C)C(=O)c1ccccc1C2=O + Cn1cc(/C=C2\C(=O)Nc3cccnc32)c2ccccc21 [GW441756] (first compound 0.0004 µM, partner dose 0.4 µM) | 80.6 | 116 | 102 | 97.4 | 115 | 55.8
36 | OCc1c[nH]c2ccccc12 [Indole-3-carbinol] + Cc1nc(Nc2ncc(C(=O)Nc3c(C)cccc3Cl)s2)cc(N2CCN(CCO)CC2)n1 [dasatanib] (first compound 0.8 µM, partner dose 0.004 µM) | 81 | 77.6 | 65.8 | 116 | 90.4 | 85.8
37 | COCC[n+]1c2c(n(Cc3cnccn3)c1C)C(=O)c1ccccc1C2=O + CC1(C)NC(=O)N(c2ccc([N+](=O)[O-])c(C(F)(F)F)c2)C1=O [nilutamide] (first compound 0.0004 µM, partner dose 1 µM) | 87.8 | 96.5 | 93.6 | 83.1 | 81 | 64.8
38 | Nc1cccc2c1CN(C1CCC(=O)NC1=O)C2=O (stereo not given) [lenalidomide] + c1cc(-c2cnn3cc(-c4ccc(OCCN5CCCCC5)cc4)cnc23)ccn1 [Dorsomorphin] (first compound 1 µM, partner dose 0.4 µM) | 107 | 98.7 | 93.3 | 113 | 122 | 111
39 | COCC[n+]1c2c(n(Cc3cnccn3)c1C)C(=O)c1ccccc1C2=O + Nc1cccc2c1CN(C1CCC(=O)NC1=O)C2=O [lenalidomide] (first compound 0.0004 µM, partner dose 1 µM) | 78.9 | 86.6 | 89.5 | 95.8 | 103 | 65.4
40 | C#Cc1cccc(Nc2ncnc3cc(OCCOC)c(OCCOC)cc23)c1 [erlotinib] + O=c1cc(-c2cccc3c2Sc2ccccc2S3)oc(N2CCOCC2)c1 [KU55933] (first compound 0.8 µM, partner dose 1 µM) | 114 | 97.7 | 81.6 | 76.7 | 115 | 109
